The whole screen tested about 44,000 compounds, of which about 30 (0.07%) were called active. This list was built around the results that the source calls inconclusive (neither active nor inactive); the mix of calls is not that of the screen. Rule as the data show it: active = inhibition above about 54% (passing the limit was not always enough); inconclusive = no clear call, values can overlap the other calls.
Molecular target: Histone-lysine N-methyltransferase NSD2 (Homo sapiens) (UniProt O96028)
Assay: NSD2 histone methyltransferase activity blockers – biochemical, plate reader, single point, primary screen (AID 624260);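 also: inhibitors reduce the monomethyl H3K36 fluorescence signal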
Details: NSD2-SET H3K36me1 DELFIA fluorescence, at 12.5 µM, stronger effect = higher value

Chain of UniProt O96028 (O96028 whole entry, looked up): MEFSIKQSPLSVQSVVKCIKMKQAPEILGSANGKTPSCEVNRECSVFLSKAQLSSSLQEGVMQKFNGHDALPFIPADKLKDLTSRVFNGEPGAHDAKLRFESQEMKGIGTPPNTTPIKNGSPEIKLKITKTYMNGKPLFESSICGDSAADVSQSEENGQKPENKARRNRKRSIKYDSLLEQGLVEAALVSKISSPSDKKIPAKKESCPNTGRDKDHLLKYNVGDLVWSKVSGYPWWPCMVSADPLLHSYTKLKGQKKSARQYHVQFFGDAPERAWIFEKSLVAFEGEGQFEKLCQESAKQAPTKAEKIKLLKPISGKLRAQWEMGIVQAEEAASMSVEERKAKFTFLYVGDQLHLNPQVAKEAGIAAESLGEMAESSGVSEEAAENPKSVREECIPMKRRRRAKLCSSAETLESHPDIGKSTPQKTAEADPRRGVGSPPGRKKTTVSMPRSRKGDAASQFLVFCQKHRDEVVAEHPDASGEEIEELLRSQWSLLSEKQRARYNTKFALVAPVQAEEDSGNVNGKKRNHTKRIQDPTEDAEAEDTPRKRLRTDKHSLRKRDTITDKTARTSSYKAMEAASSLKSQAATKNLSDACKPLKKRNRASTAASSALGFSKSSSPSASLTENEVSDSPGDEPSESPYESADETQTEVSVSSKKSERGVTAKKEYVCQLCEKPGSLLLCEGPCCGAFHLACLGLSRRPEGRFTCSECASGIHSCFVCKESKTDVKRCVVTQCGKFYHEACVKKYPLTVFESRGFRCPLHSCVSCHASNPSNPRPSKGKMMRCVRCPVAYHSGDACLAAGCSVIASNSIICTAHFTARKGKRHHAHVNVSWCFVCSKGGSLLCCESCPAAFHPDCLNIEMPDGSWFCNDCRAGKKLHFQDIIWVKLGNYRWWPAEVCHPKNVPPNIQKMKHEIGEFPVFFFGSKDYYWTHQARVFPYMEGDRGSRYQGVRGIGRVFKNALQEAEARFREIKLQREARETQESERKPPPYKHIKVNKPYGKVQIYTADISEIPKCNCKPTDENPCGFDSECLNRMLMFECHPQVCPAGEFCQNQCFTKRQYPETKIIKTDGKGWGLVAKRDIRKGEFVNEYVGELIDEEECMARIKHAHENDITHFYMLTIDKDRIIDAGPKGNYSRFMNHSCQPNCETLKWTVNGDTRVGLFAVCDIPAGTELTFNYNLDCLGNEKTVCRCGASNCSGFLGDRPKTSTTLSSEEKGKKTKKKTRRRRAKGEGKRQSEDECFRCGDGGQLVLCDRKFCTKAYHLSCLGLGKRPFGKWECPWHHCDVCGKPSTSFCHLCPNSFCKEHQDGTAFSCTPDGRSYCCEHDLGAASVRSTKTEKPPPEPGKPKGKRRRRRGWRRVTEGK

Row | Compound | inhibition
1 | C[C@H](CO)N1C[C@H](C)[C@H](CN(C)C(=O)c2ccccn2)Oc2ncc(C#Cc3ccccn3)cc2C1=O | inconclusive: 101%
2 | C/C=C/c1cnc2c(c1)C(=O)N([C@@H](C)CO)C[C@H](C)[C@H](CN(C)C(=O)CN1CCOCC1)O2 | inconclusive: 57.6%
3 | COc1ccc(/C=N/NC(=O)CCCCCCC(=O)NO)cc1OC | inactive: -0.208%
4 | CCC(C)C(=O)c1c(O)cc2c(c1O)CC(CC=C(C)C)C(C)(C)O2 (configuration not stated) | inactive: -0.266%
5 | CC(C)NC(=O)N(C)C[C@@H]1OCCCC[C@H](C)Oc2ccc(N(C)C)cc2C(=O)N([C@H](C)CO)C[C@H]1C | inconclusive: 101%
6 | C[C@@H]1CCCCO[C@@H](CN(C)C(=O)C2CCCCC2)[C@H](C)CN([C@H](C)CO)C(=O)c2cc(NC(=O)Nc3ccccc3)ccc2O1 | inconclusive: 191%
7 | COc1ccc(C#Cc2ccc3c(c2)O[C@@H](CN(C)S(=O)(=O)c2ccccc2F)[C@H](C)CN([C@@H](C)CO)S3(=O)=O)cc1 | inconclusive: 67.6%
8 | O=C(O)CCCC[C@@H]1SC[C@@H]2NC(=O)N[C@@H]21 | active: 105%
9 | COc1ccc(NC(=O)N(C)C[C@H]2Oc3cc(C#CCN(C)C)ccc3S(=O)(=O)N([C@@H](C)CO)C[C@@H]2C)cc1 | inactive: 5.29%
10 | O=C(N/N=C/c1cc(I)cc(I)c1O)c1ccccn1 | inactive: 10.2%
11 | C[C@@H]1CCCCO[C@@H](CN(C)Cc2ccccc2)[C@H](C)CN([C@H](C)CO)C(=O)c2cc(NS(=O)(=O)c3ccccc3)ccc2O1 | inconclusive: 71.9%
12 | COc1ccc(S(=O)(=O)Nc2ccc3c(c2)CC(=O)N([C@@H](C)CO)C[C@@H](C)[C@@H](CN(C)S(=O)(=O)c2ccc(OC)cc2)O3)cc1 | inactive: -5.83%
13 | CC(C)=CCc1cc(O[C@@H]2O[C@H](CO)[C@@H](O)[C@H](O)[C@H]2O)cc(CC=C(C)C)c1C(O)C(=O)O (some centres not stated) | active: 60.6%
14 | OC[C@H]1O[C@@H](Oc2ccc3c(c2)OC[C@H]2c4cc5c(cc4O[C@@H]32)OCO5)[C@H](O)[C@@H](O)[C@@H]1O | active: 68.4%
15 | C[C@@H]1CN([C@H](C)CO)C(=O)c2cc(NC(=O)C3CCCCC3)ccc2O[C@H]1CN(C)C(=O)Nc1cccc2ccccc12 | inconclusive: 77.2%
16 | CC(C)NC(=O)Nc1ccc2c(c1)C(=O)N([C@H](C)CO)C[C@H](C)[C@H](CN(C)Cc1ccc(C(=O)O)cc1)OCCCC[C@@H](C)O2 | inconclusive: 127%
17 | CCC(C)(C)C(=O)N1CCC(C(=O)OC)CC1 | inactive: 14.7%
